Among all 310,000 compounds or so, about 2,200 (0.71%) showed an effect of 50% or more. The effect is printed as a negative number. Some of the results follow.
Biological target: human ether-à-go-go-related gene (hERG) potassium channel (human, UniProt Q12809)
Experiment: primary screen, population patch clamp on CHO cells stably expressing hERG

Sequence of human ether-à-go-go-related gene (hERG) potassium channel (Q12809 whole entry, looked up): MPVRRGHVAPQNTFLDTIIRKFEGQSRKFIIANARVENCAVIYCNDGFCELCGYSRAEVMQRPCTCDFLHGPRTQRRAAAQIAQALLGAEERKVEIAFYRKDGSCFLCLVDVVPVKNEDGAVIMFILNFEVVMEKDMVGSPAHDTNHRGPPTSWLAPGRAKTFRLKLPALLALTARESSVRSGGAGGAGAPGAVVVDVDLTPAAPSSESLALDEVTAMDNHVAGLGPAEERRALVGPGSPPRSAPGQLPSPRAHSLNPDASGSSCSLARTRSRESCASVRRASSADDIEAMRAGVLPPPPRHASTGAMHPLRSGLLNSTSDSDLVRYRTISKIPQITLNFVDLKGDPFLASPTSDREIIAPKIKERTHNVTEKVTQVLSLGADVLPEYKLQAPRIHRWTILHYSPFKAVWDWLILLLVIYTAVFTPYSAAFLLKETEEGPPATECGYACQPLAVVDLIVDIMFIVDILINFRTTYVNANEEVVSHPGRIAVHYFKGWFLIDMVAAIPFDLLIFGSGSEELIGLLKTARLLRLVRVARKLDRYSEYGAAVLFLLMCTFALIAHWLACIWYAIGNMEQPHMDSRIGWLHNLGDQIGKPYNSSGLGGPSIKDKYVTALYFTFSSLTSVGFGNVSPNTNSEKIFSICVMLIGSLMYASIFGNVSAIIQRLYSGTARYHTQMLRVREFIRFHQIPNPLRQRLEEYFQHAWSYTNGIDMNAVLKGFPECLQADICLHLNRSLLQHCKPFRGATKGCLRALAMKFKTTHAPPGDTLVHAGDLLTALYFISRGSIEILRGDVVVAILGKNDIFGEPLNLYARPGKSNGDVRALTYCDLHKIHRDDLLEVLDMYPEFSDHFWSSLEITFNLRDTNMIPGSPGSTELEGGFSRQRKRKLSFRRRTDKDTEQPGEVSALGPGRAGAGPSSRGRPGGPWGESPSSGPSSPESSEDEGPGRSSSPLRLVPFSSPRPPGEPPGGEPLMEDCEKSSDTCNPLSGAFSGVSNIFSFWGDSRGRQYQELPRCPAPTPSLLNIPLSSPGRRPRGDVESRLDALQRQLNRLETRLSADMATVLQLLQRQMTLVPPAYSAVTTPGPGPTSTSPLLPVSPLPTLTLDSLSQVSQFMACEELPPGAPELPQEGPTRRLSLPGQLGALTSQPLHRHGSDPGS

SMILES	hERG current change (%, negative = inhibition) at 1uM [%]
COc1ccc(C(=O)N/N=c2\oc3ccccc3cc2C(=O)NCc2ccccc2)cc1	6.2
Cc1cccc(-c2csc(NC(=O)c3cnccn3)c2C(=O)OC(C)C)c1	5.34
CCCOc1ccc(-c2nc(=S)[nH][nH]2)cc1	11.3
CCOc1ccc(C(=O)NC(=S)Nc2ccccc2N2CCCCC2)cc1[N+](=O)[O-]	8.22
COc1ccc(CC(=O)OCC(=O)Nc2ncc(Cl)cc2Cl)cc1	7.84
Cc1ccc(CNC(=O)c2cc3c(=O)n4ccccc4nc3n(Cc3ccco3)c2=N)cc1	-38.1
Cc1cc(OCC(=O)Nc2ccc(S(=O)(=O)N3CCN(C)CC3)cc2)ccc1Cl	8.45
COc1ccc(CN2CCCCC2C)cc1OC (centres unmarked)	-2.1
NC(=O)C1CCN(C(=O)CN2CCN(c3cccc(C(F)(F)F)c3)CC2)CC1	2.68
O=C(CSc1nc(=O)n2ccccc2n1)NCc1ccc(F)cc1	16.2
Cn1c(NC(=O)c2ccc(C(C)(C)C)cc2)cc(=O)n(C)c1=O	15.8
COCCCNCCC(CCC(C)C)c1ccc2c(c1)OCO2.Cl (centres unmarked)	-85.8
CCc1nnc(NC(=O)CSc2nnc(-c3ccc(S(=O)(=O)N4CCCC4)cc3)n2CC)s1	6.83
COc1ccc(-c2ncc3ccccn23)cc1	5.62
Cc1c(C2(c3c(C)n(C)n(-c4ccccc4)c3=O)C(=O)Nc3ccc(F)cc32)c(=O)n(-c2ccccc2)n1C	14.8
COc1ccccc1OCCNC(=O)Cc1ccc(Cl)c(Cl)c1	-8.28
COC(=O)c1c(NC(=O)COc2ccc(Cl)cc2Cl)sc2c1CC(C)(C)NC2(C)C	12.5
Cc1cccc(C)c1NC(=O)CSc1nnc(C2CCCCC2)o1	6.3
c1coc(-c2nnc3n2C2(CCCC2)Cc2ccccc2-3)c1	15.1

SMILES	hERG current change (%, negative = inhibition) at 1uM [%]
COc1ccc(CCNC(=O)CNS(=O)(=O)c2ccc(F)c(Cl)c2)cc1OC	10.6
Cc1ccccc1Nc1nc(N)nc(COC(=O)CC2CC3CCC2C3)n1 (centres unmarked)	10.9
CC(C)CNC(=O)c1nn(Cc2ccccc2)c(=O)c2ccccc12	3.73
CCCCOC(=O)c1ccc(NC(=O)c2ccccc2OC)cc1	7.3
COc1ccc(C(=O)N2CCC(C(=O)N3CCN(c4ccccc4)CC3)CC2)cc1	-24.6
O=C(NNC(=O)C1CCN(Cc2ccc(Cl)c(Cl)c2)CC1)c1cccs1	16.6
Cc1ccc(C(=O)NC(=S)NNC(=O)COc2ccccc2C)cc1	12.9
CCCCc1nc2ccccc2c(NC(=O)CN2CCCC2)c1CCC.O=C(O)C(=O)O	6.89
O=C1c2ccccc2C(Nc2ccc(S(=O)(=O)N3CCOCC3)cc2)N1c1ccccn1 (centres unmarked)	6.53
COc1ccc(CN2C(=O)NC(=O)/C(=C/c3ccc([N+](=O)[O-])s3)C2=O)cc1	18.9
CCn1nc(C)c(Br)c1-c1nc(-c2ccc(C)cc2)no1	11.9
c1ccc(Cn2nnnc2C(c2cccnc2)N2CCN(C3CCCCC3)CC2)cc1 (centres unmarked)	0.0294
Cc1cc(OC(C)C(=O)NCCCN2CCCC2=O)c2c(C)c(C)c(=O)oc2c1 (centres unmarked)	2.69
O=[N+]([O-])c1ccc(Cl)cc1Sc1ccccn1	14.3
Cc1cc(C)c(OCC(=O)Nc2nc3ccccc3[nH]2)c(C)c1	11.2
O=C(CSc1ccccc1)Nc1ccc2c(c1)C(=O)NC2=O	4.61
O=C(CN(c1cccc([N+](=O)[O-])c1)S(=O)(=O)c1ccccc1)NCc1cccnc1	-3.13
O=C(CCN1C(=O)c2ccccc2C1=O)Nc1ccc(S(=O)(=O)NC2=NCCCCC2)cc1	7.47
Cc1oc2cc3oc(=O)c(CCC(=O)NCCCn4ccnc4)c(C)c3cc2c1C	7.61

SMILES	hERG current change (%, negative = inhibition) at 1uM [%]
O=C(NCC(=O)N1CCCCC1)c1ccc2ccccc2c1	21.1
Cc1ccc(SCCCn2cncn2)cc1	1.21
Cc1ccc(-c2[nH]ncc2/C=C(\C#N)C(=O)NC2CCCCC2)cc1	5.62
COc1ccc(S(=O)(=O)N2CCOC2CNC(=O)C(=O)NCc2ccccn2)cc1C (centres unmarked)	13.9
COc1ccc(CNC(=O)C/C(C)=N/NC(=O)c2ccc(OC)cc2OC)cc1	-5.79
O=C(CSc1ccccc1Cl)N1CCOCC1	9.02
N#CC1(NC(=O)COC(=O)c2ccc(-c3ccc(O)cc3)cc2)CCCCC1	5.27
O=C(Cc1ccccc1)NCC(=O)Nc1cccc(Cl)c1	15.2
O=C(NCCc1ccccc1)C1CCCN1C(=O)Nc1ccc(Cl)cc1 (centres unmarked)	0.785
O=CN1Cc2ccccc2-c2ccccc2C1	15.4
COc1cc(C=O)ccc1Oc1nc(Nc2ccc(F)cc2F)nc(N2CCOCC2)n1	7.34
Cc1ccc(C(=O)N/N=C\c2ccc(OC(=O)c3cccs3)cc2)cn1	2.76
O=C(OCC(=O)N1CCN(S(=O)(=O)c2ccc(Cl)cc2)CC1)c1cccc(OC(F)F)c1	-15.7
Cn1nnc(NC(=O)c2ccccc2)n1	4.2
CC(C)(C)C(=O)Nc1ccc(-c2cn3ccsc3n2)cc1	11.7
Cc1nc2c3ccccc3n(CCN3CCCCC3)c2s1.Cl	-4.03
O=C(N/N=C/c1cccc2ccccc12)c1cc(C2CC2)[nH]n1	9.35
CC(C)CC(CC(C)C)=NNC(=O)c1ccc2c(c1)OCO2	2.58
